Experimental data taken from the supplement of paper PMC11417369.
± gives the standard deviation of the averaged measurements. The list shows a part of the results.

Tested on: PfAP2-LT AP2 domain (GST-tagged)
Assay: gcPBM binding intensity (ln(normalized median fluorescence intensity)); higher = stronger DNA binding
Method in brief: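 Binding intensity is defined as the maximum Masliner-normalised natural-log median intensity across replicate spots for either probe orientation. It was measured on an Agilent 4 × 180k array of primer-extended double-stranded 36-bp intergenic genomic probes and negative controls, to which GST-tagged P. falciparum DNA-binding domains made in E. coli were applied for 1 h in 1× PBS with 1% milk, 0.2 mg/ml BSA, 0.5% salmon testes DNA and 0.03% Triton X-100. Detection was by Alexa488 anti-GST antibody and scanning at 488 nm.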

Q: How did the “gcPBM binding intensity (ln)” value turn out when “AAAATAATAAAAAGGGGTACAAAGAAACAAATATAA [XGTACX_site296]” was run?
A: 8.98 ± 0.54

Q: “TATGTGCATATAAACTCACACATTGTATATTACATG [CACACA_site6106]” was tested. Which “gcPBM binding intensity (ln)” value did it give?
A: 8.89 ± 0.37

Q: “TATTACATTATATAAACATGCAAAACTATATATTAT [TGCATGCA_site601]” was tested. Which “gcPBM binding intensity (ln)” value did it give?
A: 8.7 ± 0.3

Q: How did the “gcPBM binding intensity (ln)” value turn out when “ATTTTAGAATTTAATACACACAAAAAAAAAAAATTA [CACACA_site3704]” was run?
A: 8.6 ± 0.47

Q: With ACTTTAGAAATAGAGGTGCTATTTTTATTACCACAC as the sequence, how does the “gcPBM binding intensity (ln)” value read?
A: 8.85 ± 0.54

Q: For “AAAAATTTATTTAAAAGTACATAAAATAAAGGTGGA [XGTACX_site7591]”, which “gcPBM binding intensity (ln)” value is on record?
A: 8.65 ± 0.53

Q: For “TATACACATATATACACACACATATATAAATAAATA [CACACA_site7579]”, which “gcPBM binding intensity (ln)” value is on record?
A: 9.48 ± 0.37

Q: How did the “gcPBM binding intensity (ln)” value turn out when “TGCACAAAGTTATGCACACACCTAAAATTAATTTTT [CACACA_site7385]” was run?
A: 9.12 ± 0.36

Q: For “TTATAATATGTATACACACACATATATAGATATATA [CACACA_site7159]”, which “gcPBM binding intensity (ln)” value is on record?
A: 9.18 ± 0.35

Q: For “GTACATAGGTATAGCACACACAAATGTAGGTATTTT [CACACA_site4049]”, which “gcPBM binding intensity (ln)” value is on record?
A: 9.45 ± 0.44

Q: For “ATTCTTTATATGCATACACACCTAATATAGGGACCT [CACACA_site6830]”, which “gcPBM binding intensity (ln)” value is on record?
A: 9.12 ± 0.39

Q: “AAATGTAATATAAATAGTACATATTAAATAAAATTA [XGTACX_site6917]” was tested. Which “gcPBM binding intensity (ln)” value did it give?
A: 8.72 ± 0.47

Q: For “ATGTGCACATATAAAAGTACACGCACATATATATAT [XGTACX_site1238]”, which “gcPBM binding intensity (ln)” value is on record?
A: 9.33 ± 0.3

Q: Which “gcPBM binding intensity (ln)” value does the source give for “TATATAATTGTCTTCACACACACATATATATATATA [CACACA_site2744]” here?
A: 9.565 ± 0.078

Q: How did the “gcPBM binding intensity (ln)” value turn out when “AAGAATATTATAAACACACACTTTATAAAGAATTAT [CACACA_site4241]” was run?
A: 9.02 ± 0.38

Q: “TATTTTATTTGTATATTCATTTGTATAATATAAATA [TGCATGCA_negctrl_site267]” was tested. Which “gcPBM binding intensity (ln)” value did it give?
A: 8.44 ± 0.45

Q: “AAAAAAAAAAAAAAAACACACATAAAAATATAATAA [CACACA_site3855]” was tested. Which “gcPBM binding intensity (ln)” value did it give?
A: 8.74 ± 0.63

Q: ATTATATATAATATAGTGCATGTAAAAAATAAAACA was tested. Which “gcPBM binding intensity (ln)” value did it give?
A: 8.95 ± 0.48

Q: “GATGTATTCATACATGCACACGTACATATTTAAATA [CACACA_site9299]” was tested. Which “gcPBM binding intensity (ln)” value did it give?
A: 9.09 ± 0.28

Q: How did the “gcPBM binding intensity (ln)” value turn out when “TAAACCAAAAAAAGTAGTACAAATATTATAAAAAAA [XGTACX_site8497]” was run?
A: 8.69 ± 0.52

Q: How did the “gcPBM binding intensity (ln)” value turn out when “TATTTTAATTTTTGTTGTACGCAAATGTGAGGGCAT [XGTACX_site4663]” was run?
A: 8.54 ± 0.4

Q: How did the “gcPBM binding intensity (ln)” value turn out when “AAATCGTGCACGGACACATGCAGTAGCCGAGAATTA [TGCATGCA_site733]” was run?
A: 9.12 ± 0.38

Q: How did the “gcPBM binding intensity (ln)” value turn out when “TGTTTATTTATTTGTGTGCACTCAGATTATATTATA [GTGCAC_site9510]” was run?
A: 9.34 ± 0.49

Q: Which “gcPBM binding intensity (ln)” value does the source give for “GTTCATAAATTAAACACACACACACGGCTGGATACC [CACACA_site7545]” here?
A: 9.79 ± 0.26

Q: For “AGGTAGAAAAAAGACACACACATTAGATATTTATAT [CACACA_site6313]”, which “gcPBM binding intensity (ln)” value is on record?
A: 9.38 ± 0.47

Q: Which “gcPBM binding intensity (ln)” value does the source give for “GTAAAACAGATTTACAGTACACATGTGTTATGTTTT [XGTACX_site2933]” here?
A: 9.06 ± 0.42

Q: How did the “gcPBM binding intensity (ln)” value turn out when “TTTTTATATTTTATTATTTTTTTTATATAAAAAATT [CACACA_negctrl_site601]” was run?
A: 8.38 ± 0.59

Q: How did the “gcPBM binding intensity (ln)” value turn out when “TTTATATATAAATAATGTACAAAAAATTTTAAAAAG [XGTACX_site7990]” was run?
A: 8.39 ± 0.39

Q: With “ATAAAAATATTTGAATGTACTTATAAGATATATATA [XGTACX_site4257]” as the sequence, how does the “gcPBM binding intensity (ln)” value read?
A: 8.54 ± 0.45

Q: For “TCTATTTTTTATATGGTGCATTGTTCTTATTAATAT [GTGCAC_site9392]”, which “gcPBM binding intensity (ln)” value is on record?
A: 8.92 ± 0.47

Q: “CTTTATTTTTTATACACACACAATATGTATTTATAT [CACACA_site5879]” was tested. Which “gcPBM binding intensity (ln)” value did it give?
A: 9.28 ± 0.51

Q: Which “gcPBM binding intensity (ln)” value does the source give for “AATTAATTTATGTTACGTACATAAGTATTATATTTT [XGTACX_site388]” here?
A: 8.8 ± 0.39

Q: For “AGGAAAAATAATTATTCACACAATAAATATATTTGA [CACACA_site5824]”, which “gcPBM binding intensity (ln)” value is on record?
A: 8.57 ± 0.57

Q: Which “gcPBM binding intensity (ln)” value does the source give for “GTTCAAATTATTATGTGTACTAAAGAATATTTTAAA [XGTACX_site3166]” here?
A: 8.29 ± 0.43

Q: How did the “gcPBM binding intensity (ln)” value turn out when “TAAATACATCTATGCACACAAAAAAATATATATTTT [CACACA_site5027]” was run?
A: 9.02 ± 0.39

Q: How did the “gcPBM binding intensity (ln)” value turn out when “TGTATAAACTTTACGTGTACATGAATAATCTATAAT [XGTACX_site3801]” was run?
A: 8.65 ± 0.38

Q: Which “gcPBM binding intensity (ln)” value does the source give for “TTGTACAAAAATAATGCACACTATATCAAGTTTTTT [CACACA_site5898]” here?
A: 8.82 ± 0.32

Q: For “AAAATGGAACTAGGAATAATATAAGAAGATAAAAGG [XGTACX_negctrl_site347]”, which “gcPBM binding intensity (ln)” value is on record?
A: 8.79 ± 0.48

Q: With “TAATCATTTTAGCTTACACACAAAATTTTGTTATAA [CACACA_site2939]” as the sequence, how does the “gcPBM binding intensity (ln)” value read?
A: 8.9 ± 0.41

Q: AAAATAATTTTATAAGTGCAAAATAGCTTATTTATA was tested. Which “gcPBM binding intensity (ln)” value did it give?
A: 8.46 ± 0.49

Q: For “TATATATGTGTATAGAGTACACGTTTTTTTTAATAT [XGTACX_site3128]”, which “gcPBM binding intensity (ln)” value is on record?
A: 8.68 ± 0.46

Q: How did the “gcPBM binding intensity (ln)” value turn out when “AAAAACCTGAACTGTGCATGTCATACTTTTACTTTT [TGCATGCA_site73]” was run?
A: 8.99 ± 0.4

Q: Which “gcPBM binding intensity (ln)” value does the source give for TATACGTATTACAGAGTGCAATAAACAGTATATATT here?
A: 9.04 ± 0.33

Q: How did the “gcPBM binding intensity (ln)” value turn out when “TATAAGAATGACAAGTGTACATATCAAATATATTAG [XGTACX_site7113]” was run?
A: 8.83 ± 0.4

Q: How did the “gcPBM binding intensity (ln)” value turn out when “TATTTTTTATATTTATTTATTTAAAGGAGCTTTTCT [GTGCAC_negctrl_site293]” was run?
A: 8.34 ± 0.54

Q: For “TATACTAAAAAATACACATGCACATACAATATATAT [TGCATGCA_site1016]”, which “gcPBM binding intensity (ln)” value is on record?
A: 9.05 ± 0.4

Q: For “AATATAAATTAATTTACACACTAAAAAATATTTATA [CACACA_site7728]”, which “gcPBM binding intensity (ln)” value is on record?
A: 8.59 ± 0.55

Q: For “ACATACTTTAATATATGTACATAAGAAAAAAAAAAA [XGTACX_site2991]”, which “gcPBM binding intensity (ln)” value is on record?
A: 8.81 ± 0.55

Q: “TGTACATATATATATATAATAATAGTTATGTTTATT [CACACA_negctrl_site1474]” was tested. Which “gcPBM binding intensity (ln)” value did it give?
A: 8.85 ± 0.32

Q: With “TTTTTTTATAGCTAAACACACATAAGAATATATGTT [CACACA_site1099]” as the sequence, how does the “gcPBM binding intensity (ln)” value read?
A: 8.76 ± 0.4

Q: “ATTATTACACAACGTTGTACATTTCAATATTTTTAT [XGTACX_site5096]” was tested. Which “gcPBM binding intensity (ln)” value did it give?
A: 9.12 ± 0.49

Q: With “AAAATAATATATAATTGTACTTTTTTTTTATATATA [XGTACX_site6093]” as the sequence, how does the “gcPBM binding intensity (ln)” value read?
A: 8.48 ± 0.38

Q: For “TCCTCTTCAATATATATATATTATAAATAAATAAAT [CACACA_negctrl_site1756]”, which “gcPBM binding intensity (ln)” value is on record?
A: 8.32 ± 0.29

Q: Which “gcPBM binding intensity (ln)” value does the source give for “TTTCTTTTTTTTTAATGTACTTTTTTTATAAAAGGT [XGTACX_site5688]” here?
A: 8.28 ± 0.52

Q: “TTTTTTCTTAAAATTTGTACATAGTGCAATTTTTTT [XGTACX_site5509]” was tested. Which “gcPBM binding intensity (ln)” value did it give?
A: 8.41 ± 0.59

Q: How did the “gcPBM binding intensity (ln)” value turn out when “TTTGAATTTTTTAACACACACATGTGTGGATATATA [CACACA_site6872]” was run?
A: 9.17 ± 0.35

Q: Which “gcPBM binding intensity (ln)” value does the source give for “TATTAACACTTTATAGAAACAAAAAAATAAGCAAAA [XGTACX_negctrl_site295]” here?
A: 8.51 ± 0.52
